Reference: article PMC4336329 (PLoS ONE, 2015)
Out of some 310,000 compounds screened, about 14,000 (4.5%) showed an effect of 50% or more. The effect is printed as a negative number. Some of the results follow.

target: human ether-à-go-go-related gene (hERG) potassium channel (human, UniProt Q12809); assay: primary screen, population patch clamp on CHO cells stably expressing hERG
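Note: peak tail current of the secondary pulse compared with the same well before compound.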

human ether-à-go-go-related gene (hERG) potassium channel, sequence (Q12809 whole entry, looked up): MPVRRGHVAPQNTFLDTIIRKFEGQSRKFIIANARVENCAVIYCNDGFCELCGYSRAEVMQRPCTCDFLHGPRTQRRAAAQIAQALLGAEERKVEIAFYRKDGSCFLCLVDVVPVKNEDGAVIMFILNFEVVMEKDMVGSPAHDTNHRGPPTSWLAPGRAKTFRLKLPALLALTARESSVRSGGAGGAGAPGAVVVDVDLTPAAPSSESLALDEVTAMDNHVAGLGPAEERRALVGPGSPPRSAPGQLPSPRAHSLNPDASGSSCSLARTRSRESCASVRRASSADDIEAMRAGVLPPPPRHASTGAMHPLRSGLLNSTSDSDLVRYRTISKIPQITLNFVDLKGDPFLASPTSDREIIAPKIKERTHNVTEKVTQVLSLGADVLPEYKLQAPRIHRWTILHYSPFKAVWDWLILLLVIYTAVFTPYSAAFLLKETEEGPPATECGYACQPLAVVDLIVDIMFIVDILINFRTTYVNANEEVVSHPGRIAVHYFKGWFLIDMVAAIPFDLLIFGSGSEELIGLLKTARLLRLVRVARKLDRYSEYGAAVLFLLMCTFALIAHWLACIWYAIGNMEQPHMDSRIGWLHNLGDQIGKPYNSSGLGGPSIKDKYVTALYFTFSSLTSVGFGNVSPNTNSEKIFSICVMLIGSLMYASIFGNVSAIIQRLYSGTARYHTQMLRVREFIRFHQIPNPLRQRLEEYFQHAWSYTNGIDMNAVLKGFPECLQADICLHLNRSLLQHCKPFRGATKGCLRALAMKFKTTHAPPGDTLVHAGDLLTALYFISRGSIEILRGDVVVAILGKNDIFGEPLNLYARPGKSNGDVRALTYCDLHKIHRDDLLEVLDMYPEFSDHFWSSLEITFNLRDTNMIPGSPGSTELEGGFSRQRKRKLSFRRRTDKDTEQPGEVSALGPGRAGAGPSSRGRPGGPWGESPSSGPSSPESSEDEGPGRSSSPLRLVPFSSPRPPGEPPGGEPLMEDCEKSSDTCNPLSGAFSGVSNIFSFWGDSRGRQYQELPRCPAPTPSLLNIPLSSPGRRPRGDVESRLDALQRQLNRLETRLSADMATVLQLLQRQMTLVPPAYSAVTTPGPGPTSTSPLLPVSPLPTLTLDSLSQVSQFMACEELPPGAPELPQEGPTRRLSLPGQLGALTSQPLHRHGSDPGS

| SMILES | hERG current change (%, negative = inhibition) at 10uM |
| --- | --- |
| Cc1cc(/C=C(\C#N)C(=O)NCc2cccs2)c(C)[nH]1 | 40.7% |
| O=C(O)CCCNC(=O)c1cccc(C(=O)NCCCC(=O)O)n1 | 11.4% |
| Cc1nc2nc(C)c(CCC(=O)Nc3ccc4c(c3)OCO4)c(C)n2n1 | -18% |
| CCC(C)[C@H](NC(=O)N1CCn2c1nc1ccccc12)C(=O)NCCc1ccc(OC)c(OC)c1 (some centres unmarked) | -3.1% |
| CN1CCN(c2nc(-c3cccnc3)nc3scc(-c4ccccc4)c23)CC1 | -37.7% |
| CC(C)(C)c1ccc(S(=O)(=O)N2CCC(CO)(CC3CCCCO3)CC2)cc1 (centres unmarked) | -15.4% |
| Cc1ccc(C)c(OCCC(=O)NCCc2ccc(S(N)(=O)=O)cc2)c1 | 10.7% |
| Cc1ccc(C)c(S(=O)(=O)c2c(C)cc(C)[nH]c2=O)c1 | 25% |
| Cc1ccccc1C(=O)NCC(=O)OC(C)C(=O)Nc1ccnn1C(C)C (centres unmarked) | -2.39% |
| CNC1(c2nnnn2-c2ccccc2C)CCOC(C)(C)C1 (centres unmarked) | 19.5% |
| COc1ccc(CNC(=O)C2CCN(S(=O)(=O)c3ccc4c(c3)N(C(C)=O)CCO4)CC2)cc1 | -40.5% |
| O=C(CSc1nnc(C2CC2)n1-c1ccccc1)NCc1ccco1 | 5.39% |
| CC1(C)Cc2cccc(OCC(=O)Nc3cc(S(C)(=O)=O)ccc3Cl)c2O1 | 12.4% |
| COc1ccc(CC2(C)OC(c3ccncc3)=NN2C(C)=O)cc1 (centres unmarked) | 0.737% |
| Cn1c(=O)c2c(ncn2CC(=O)OCC(=O)Nc2cc(Cl)ccc2Cl)n(C)c1=O | -21.7% |
| Cn1c(=O)oc2cc(S(=O)(=O)CCC(=O)N3CCN(c4ccccc4)CC3)ccc21 | 10.9% |
| CC(=O)Nc1ccc(-c2csc(Nc3cc(C)ccn3)n2)cc1 | 2.57% |
| Cc1onc(-c2ccccc2)c1C(=O)N/N=C/c1cn(C)c2ccccc12 | 4.18% |
| O=c1[nH]nc(SCCS(=O)(=O)c2ccc(F)cc2)n1-c1ccc2c(c1)OCCO2 | 5.22% |
| COc1cc(C(=O)N2CCN(C(=O)COc3ccc4ccccc4c3)CC2)cc(OC)c1OC | -73% |
| Cc1cc(S(N)(=O)=O)c(N)c(S(N)(=O)=O)c1 | 2.55% |
| Cc1cccc(C(=O)NC2CCN(C(=O)N3CCOCC3)CC2)c1 | 22.3% |

| SMILES | hERG current change (%, negative = inhibition) at 10uM |
| --- | --- |
| COCON1C(=O)CN(C(C)=O)C1c1ccc(Cl)cc1Cl (centres unmarked) | 11.4% |
| Cc1c(C)[n+](=O)c(-c2cccs2)c(C)n1[O-] | 20.5% |
| CCCC1=Nc2cc(C(=O)NCCCN3CCN(C)CC3)ccc2Sc2ccccc21 | -16.6% |
| CC1CCC2(CC1)NC(=O)N(Cc1cc(=O)n3ccsc3n1)C2=O (centres unmarked) | -8.8% |
| CCCN(CCC)CCCNc1ccc(C(=O)Nc2cccc(OC)c2)cc1[N+](=O)[O-].Cl | -76.3% |
| O=C(NCCc1nnc2ccc(SCC(=O)N3CCCC3)nn12)c1ccccc1 | 6.64% |
| Cc1cc(C)cc(-c2nnc(SCc3ccc(C(=O)O)cc3)o2)c1 | -74% |
| CCc1ccc(C(=O)NNC(=O)C2CC(=O)N(Cc3ccccc3)C2)cc1 (centres unmarked) | -16.8% |
| Cc1ccc(NC(=O)NC(=O)CN2C(=O)NC3(CCCCCCC3)C2=O)c(C)c1 | 21% |
| Cl.O.O=C1Cc2ccccc2Sc2c(OCCN3CCCCC3)cccc21 | -63.4% |
| CC(=O)NCCNC(=O)c1ccc2c(c1)S(=O)(=O)c1ccccc1C2=O | 5.42% |
| CC(C)C1Nc2ccc(S(N)(=O)=O)cc2C2C=CCC21 (centres unmarked) | 5.89% |
| O=C1Nc2c(Br)cc(Br)c3cccc1c23 | 18.8% |
| O=C(Nc1ccc2ccccc2c1)c1ccc(NS(=O)(=O)c2ccc(Br)s2)cc1 | 12% |
| O=C(c1n[nH]c(=O)c2ccccc12)N1CCN(c2ccc(F)cc2)CC1 | -17.4% |
| CN1CCc2nc3sc(C(=O)NCc4ccccc4)c(N)c3cc2C1 | -47.1% |
| COc1ccc2c(c1)C1C=CCC1C(c1cc3c(cc1Br)OCO3)N2 (centres unmarked) | 1.4% |
| CCOc1ccc(N2C(=O)CC(N3CCN(c4ccccc4OC)CC3)C2=O)cc1 (centres unmarked) | -0.741% |
| S=C(NCCCN1CCOCC1)N1CCN(c2cccc(Cl)c2)CC1 | -40.2% |
| O=C(Cc1ccc(F)cc1)N(c1ccc(F)cc1)C1C=CS(=O)(=O)C1 (centres unmarked) | 2.59% |
| CN1CCN(CC(=O)n2c3c(c4ccccc42)CCCC3)CC1.Cl | -19.2% |
| Cc1cc(=O)oc2cc(OCC(O)CN3CCN(c4ccc(F)cc4)CC3)ccc12 (centres unmarked) | -37.7% |

| SMILES | hERG current change (%, negative = inhibition) at 10uM |
| --- | --- |
| COc1ccccc1NC(=O)CCCCCN1C(=O)c2cccc3cccc(c23)C1=O | 8.9% |
| CCCCCn1c(CN2CC(C)OC(C)C2)nc2c1c(=O)n(C)c(=O)n2C (centres unmarked) | -5.47% |
| COc1cc(NC(=O)Nc2cccc(Cl)c2)c(C(=O)O)cc1OC | 18% |
| COCCn1c(-c2cc(OC)c(OC)c(OC)c2)nc2oc3cc(OC)ccc3c(=O)c2c1=O | 3.38% |
| COc1ccc(COC(=O)c2cc([N+](=O)[O-])ccc2N2CCOCC2)cc1F | -62.5% |
| N#C/C(=C\c1ccccc1Cl)C(=O)NC(=O)Oc1ccccc1 | 19% |
| CC(C)CC(NS(=O)(=O)c1ccc2c(c1)oc(=O)n2C)C(=O)NCc1cccnc1 (centres unmarked) | 13.8% |
| O=C(O)Cc1ccc(C(=O)c2ccc(F)cc2)s1 | 10.3% |
| COc1ccc2c(c1OC)C(=O)N(c1ccc(C)cc1)C2=O | 1.65% |
| CCc1c(C)nc2ncnn2c1N1CCC(C(=O)NCc2cccs2)CC1 | -44.4% |
| COc1cc(C(C)=O)ccc1O | 7.26% |
| COC(=O)C(NS(C)(=O)=O)(c1c(C)[nH]c2ccccc12)C(F)(F)F (centres unmarked) | -1.63% |
| COc1ccc(CCNCc2ccccc2N2CCCC2)cc1.O=C(O)C(=O)O | -41.8% |
| CC(C)(C)c1ccc(C(=O)NCc2nnc(SCC(=O)NC3CCCC3)o2)cc1 | 1.85% |
| O=C(NCc1nnc(SCC(=O)N2CCN(c3ccccc3)CC2)o1)c1ccco1 | 2.64% |
| CC(OC(=O)c1cccs1)C(=O)NCCc1ccccc1 (centres unmarked) | 15.8% |
| COc1ccc(C2Nc3ccccc3C(=O)N2Cc2ccccc2)cc1CSc1ccccn1 (centres unmarked) | 3.07% |
| CCCN1C(=S)SC(C)(C)C1/[N+]([O-])=C/c1ccc(S(=O)(=O)NC)cc1 (centres unmarked) | 8.01% |
| CCCCCCCC(=O)NNC(=O)c1ccc([N+](=O)[O-])cc1 | -20.6% |
| Cc1sc2nc3ccc(N4CCCC4)nn3c(=O)c2c1C | -17.2% |
| Cn1c(=O)c2c(nc(CN3CCN(C(=O)c4ccco4)CC3)n2CCCc2ccccc2)n(C)c1=O | -68.5% |
| CCc1nc2ccccc2n(CCOCCOCCn2c(=O)c(CC)nc3ccccc32)c1=O | -7.15% |

| SMILES | hERG current change (%, negative = inhibition) at 10uM |
| --- | --- |
| COCCN1C(=O)N(c2cccc(C)c2)C(=O)C1CC(=O)Nc1ccc(F)cc1 (centres unmarked) | -8.92% |
| O=[N+]([O-])c1ccc(O)c(/C=N/Nc2ccccc2Cl)c1 | 29.8% |
| CC(NC(=O)c1cccc(S(=O)(=O)N2CCN(C)CC2)c1)C1CC2CCC1C2 (centres unmarked) | -20.8% |
| O=C(O)c1ccc(-c2ccccc2)[nH]1 | 8.17% |
| CCNc1nc(NCC)nc(SCCOC(=O)Nc2ccc(Cl)cc2Cl)n1 | -0.694% |
| CC(CCc1ccccc1)NC(=O)C1CCN(C(=O)c2sccc2-n2cccc2)CC1 (centres unmarked) | -22% |
| CCCCC1=CC2=C(c3ccco3)C(=O)C(C)(OC(=O)c3ccc(OC)cc3)C(=O)C2=CN1CCCCO (centres unmarked) | 5.35% |
| CN1C(=O)NC(c2ccc(O)cc2)C2=C1CN(c1ccc(O)cc1)C2=O (centres unmarked) | 24% |
| CCOC(=O)c1ccc(NC(=O)C(=O)NCC2CCCO2)cc1 (centres unmarked) | 7.84% |
| COc1ccc(CNc2nc3nc4c(c(=O)n3[nH]2)CCC4)cc1 | 1.21% |
| O=C(CN1CCN(S(=O)(=O)c2ccc(F)cc2)CC1)Nc1ccc2c(c1)OCO2 | -40.6% |
| O=C1CC(C(=O)N2CCN(c3ccccc3Cl)CC2)CN1Cc1ccccc1 (centres unmarked) | -37.3% |
| O=C(CSc1nnc(-c2ccncc2)n1-c1ccc(Cl)cc1)N1CCOCC1 | -0.456% |
| CC(C)CC(=O)N1CCN(c2ccc([N+](=O)[O-])cc2Cl)CC1 | -59.9% |
| Cc1ccc(S(=O)(=O)CCN2CCN(c3ccccc3)CC2)cc1 | 9.88% |
| O=C(NCc1n[nH]c(=S)n1-c1ccccc1)c1ccc(S(=O)(=O)N2CCCCC2)cc1 | 8.66% |
| CSc1ccccc1NC(=O)Cn1nc([N+](=O)[O-])c(Cl)c1C | 9.2% |
| CC(C)n1c(O)c(N=NC(=O)CNC(=O)CCc2ccccc2)c2ccccc21 | -43.1% |
| Cc1ccccc1-c1noc(-c2ccccc2F)n1 | 5.99% |
| CCCc1nnc(NC(=O)c2cc3ccccc3o2)s1 | 13.1% |
